The full ranking holds about 33,000 sequences; the median of “E-score (-0.5 to 0.5)” is about -0.011, and the highest 2% start at about 0.28. Some of the results follow.
biological target: T1, Gcr1 (UniProt P07261); test: PBM E-score (8-mer binding enrichment) (E-score (-0.5 to 0.5)); higher = stronger / more preferred TF binding; most listed sequences are background and not binding sites; settings: protein concentration: 100 nM; construct: GST-full length
T1 sequence: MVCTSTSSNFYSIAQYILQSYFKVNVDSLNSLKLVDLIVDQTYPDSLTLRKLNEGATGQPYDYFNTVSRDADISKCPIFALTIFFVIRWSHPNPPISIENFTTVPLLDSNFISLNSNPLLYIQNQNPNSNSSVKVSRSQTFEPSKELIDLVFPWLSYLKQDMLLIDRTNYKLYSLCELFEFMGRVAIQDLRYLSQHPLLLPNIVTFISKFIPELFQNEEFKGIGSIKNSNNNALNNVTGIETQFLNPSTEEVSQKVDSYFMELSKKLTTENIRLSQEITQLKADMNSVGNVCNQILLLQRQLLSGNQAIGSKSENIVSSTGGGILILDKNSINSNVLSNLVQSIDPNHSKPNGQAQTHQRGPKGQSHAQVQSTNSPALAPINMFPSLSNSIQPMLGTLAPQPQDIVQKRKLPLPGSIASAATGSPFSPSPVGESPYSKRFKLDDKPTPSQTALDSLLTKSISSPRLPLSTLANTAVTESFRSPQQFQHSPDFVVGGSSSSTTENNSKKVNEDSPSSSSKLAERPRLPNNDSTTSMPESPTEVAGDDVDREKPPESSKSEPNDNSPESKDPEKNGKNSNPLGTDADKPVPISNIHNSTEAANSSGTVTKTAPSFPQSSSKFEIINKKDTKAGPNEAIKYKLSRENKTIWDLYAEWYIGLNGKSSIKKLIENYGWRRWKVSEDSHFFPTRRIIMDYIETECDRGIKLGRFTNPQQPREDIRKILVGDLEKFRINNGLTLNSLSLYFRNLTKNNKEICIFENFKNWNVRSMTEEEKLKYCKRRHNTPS
Method in brief: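 The E-score, a modified Wilcoxon-Mann-Whitney statistic, was computed by the Universal PBM Analysis Suite for every ungapped eight-base word pooled with its reverse complement. Scans behind it were normalised with masliner after bound GST-tagged yeast transcription factors were detected with fluorescent anti-GST. The proteins, at about 100-200 nM, had been applied to universal all-10-mer Agilent arrays made double-stranded by primer extension.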

| Sequence | PBM E-score |
| --- | --- |
| ATCCGTTA | 0.107 |
| AGTAATCA | 0.00608 |
| AGGATGCA | 0.274 |
| TGGCCACA | 0.106 |
| GTACGCGA | -0.0231 |
| GCTATCAC | 0.0786 |
| TCTCAGCA | 0.114 |
| ATATCCGG | 0.0453 |
| CCTGGTTA | -0.13 |
| ACAAATTG | 0.0261 |
| TCGAGCCA | -0.0202 |
| ATCCACTC | 0.318 |
| ACGGCATA | -0.0761 |
| ACCTTTTG | 0.0582 |
| CGGAAACG | 0.0903 |
| AGTGAGGG | -0.141 |
| CTCCAGTC | 0.0921 |
| AAGGACTC | -0.161 |
| AAACGTAG | -0.0677 |
| ATTAGCGC | 0.0397 |
| ACCCGCCT | -0.115 |
| AACAGTTG | -0.118 |

| Sequence | PBM E-score |
| --- | --- |
| AGACCAAA | 0.062 |
| CTATACTA | -0.0955 |
| CAAACATA | -0.12 |
| ACGTGATC | -0.21 |
| ATGTTCGG | 0.0415 |
| GCAATTAA | 0.037 |
| AAGGAGAG | -0.101 |
| AACTTTTG | 0.151 |
| GGCTATAC | -0.116 |
| CTAGCCAG | -0.228 |
| AAGCACAA | -0.083 |
| CAGCATTA | -0.0638 |
| AATCTCGC | -0.0134 |
| CTACAAAC | 0.0269 |
| GACCCCCA | 0.0644 |
| CCTCAACG | -0.0423 |
| ATCATTCC | -0.046 |
| CTTCGTAC | -0.253 |
| ACCTAACT | 0.0384 |
| GAATCCGA | 0.271 |
| GATGTGGA | 0.0638 |
| AGGTGAAC | 0.128 |

| Sequence | PBM E-score |
| --- | --- |
| ATGCTCCC | -0.209 |
| GTTTTCCA | 0.00515 |
| TAGAGTCA | -0.0554 |
| CAAGGAAA | -0.237 |
| ACTAGCGG | -0.0781 |
| GGTGAAGA | -0.0218 |
| ATCGGACG | -0.136 |
| CAGCCGGG | -0.0668 |
| GTGACGGA | 0.0712 |
| TACTTGGA | 0.0108 |
| ATACAGCA | 0.0215 |
| CGCTCTAA | 0.0686 |
| GACGAGAC | -0.187 |
| AAAAGACT | 0.0153 |
| AATGTCAT | 0.0736 |
| GGCCCTGA | -0.203 |
| TATGTTAA | -0.00661 |
| CGCGACTA | -0.0437 |
| ACCGTCAG | -0.18 |
| CAAACTCA | 0.0523 |
| CGCCAATC | -0.0138 |
| TAGGCTGA | -0.131 |

| Sequence | PBM E-score |
| --- | --- |
| AAAAGTTG | 0.179 |
| TAGGGCCA | -0.177 |
| CATATATG | -0.0682 |
| CGCAGGAC | -0.0582 |
| CGAGGGGC | 0.0171 |
| ATTAGTTC | 0.051 |
| ACCTTTCC | -0.0167 |
| CCCACTCG | -0.0725 |
| CACCAGGA | 0.162 |
| CTCAGCAG | 0.107 |
| CGTTCACA | 0.0492 |
| CCGAACAA | 0.159 |
| AAGGTTGA | -0.286 |
| CGCCCTCC | -0.183 |
| AGCGGGCC | -0.09 |
| GCCAGGGC | -0.143 |
| CTCTGCCC | -0.203 |
| AAGGACTA | 0.00095 |
| TACGGTGA | 0.0227 |
| AAGGTCAC | -0.25 |

From the supplement of paper PMC3334620
